Measured values published in the antibiotic and cytotoxicity screens of Wong et al. (2023).
Some of the results follow.

Test system: HSkMC (human skeletal muscle cells)
Assay: cytotoxicity call (relative viability < 0.9)
Conditions: 10 µM

| SMILES | cytotoxicity call |
| --- | --- |
| C[C@H]1CCCCO[C@@H](CN(C)Cc2ccccc2)[C@@H](C)CN([C@@H](C)CO)C(=O)c2cc(NC(=O)CCC(F)(F)F)ccc2O1 | inactive |
| Cc1ccc(S(=O)(=O)Nc2ccc3c(c2)CC(=O)N([C@@H](C)CO)C[C@H](C)[C@H](CN(C)C(=O)Nc2ccc(C(F)(F)F)cc2)O3)cc1 | inactive |
| C[C@H]1CN([C@@H](C)CO)C(=O)c2ccccc2-c2ccccc2CO[C@@H]1CN(C)S(=O)(=O)c1ccc(C(F)(F)F)cc1 | inactive |
| C[C@@H]1CN([C@H](C)CO)C(=O)CCCn2nncc2CO[C@H]1CN(C)C(=O)Nc1cccc(Oc2ccccn2)c1 | inactive |
| C[C@H](N)CCC(=O)NCS(=O)(=O)O | inactive |
| C[C@@H]1CCCCO[C@H](CN(C)Cc2ccncc2)[C@@H](C)CN([C@H](C)CO)C(=O)c2cc(NS(=O)(=O)c3ccc(Cl)cc3)ccc2O1 | inactive |
| C[C@H]1CN([C@@H](C)CO)C(=O)c2cc(NS(=O)(=O)c3ccccc3)ccc2O[C@H]1CN(C)C(=O)Nc1cccc2ccccc12 | inactive |
| CCS(=O)(=O)NCC[C@H]1CC[C@H](NC(=O)C2CCOCC2)[C@H](CO)O1 | inactive |
| C[C@@H]1CCCCO[C@H](CN(C)Cc2ccc(C(F)(F)F)cc2)[C@@H](C)CN([C@H](C)CO)C(=O)c2cc(NS(=O)(=O)c3ccc(F)cc3)ccc2O1 | inactive |
| C[C@H]1CN([C@@H](C)CO)C(=O)c2cc(NC(=O)CCN3CCOCC3)ccc2O[C@H]1CN(C)C(=O)Nc1ccc2c(c1)OCO2 | inactive |
| COc1ccc(S(=O)(=O)Nc2cccc3c2O[C@@H](CN(C)Cc2ccc(Cl)c(Cl)c2)[C@H](C)CN([C@H](C)CO)C3=O)cc1 | inactive |
| COc1ccc(NC(=O)Nc2ccc3c(c2)C(=O)N([C@@H](C)CO)C[C@H](C)[C@@H](CN(C)Cc2ccc(-c4ccccc4)cc2)O3)cc1 | active |
| C[C@H](CO)N1C[C@H](C)[C@H](CN(C)CC2CC2)Oc2ccc(NS(=O)(=O)c3ccc(F)cc3)cc2CC1=O | inactive |
| C[N+](C)(C)CC(O)CC(=O)[O-] (stereo not given) | inactive |
| Cc1ccc(S(=O)(=O)N(C)C[C@H]2Oc3c(NS(C)(=O)=O)cccc3C(=O)N([C@H](C)CO)C[C@@H]2C)cc1 | inactive |
| C[C@@H]1CN([C@H](C)CO)C(=O)c2cccc(NC(=O)Nc3cccc4ccccc34)c2O[C@@H]1CN(C)S(=O)(=O)c1ccccc1 | inactive |
| O=c1/c(=C/c2cccc(Cl)c2)c2cccc3cccc1c32 | inactive |
| O=C(C[C@H]1CC[C@@H](NC(=O)c2ccc(F)cc2)[C@H](CO)O1)NCc1ccncn1 | inactive |
| O=C(C[C@@H]1C[C@@H]2c3cc(NC(=O)c4cccnc4)ccc3O[C@@H]2[C@@H](CO)O1)NCc1cc(F)ccc1F | inactive |
| C[C@@H]1CN([C@H](C)CO)C(=O)c2cccc(NC(=O)Nc3ccc4c(c3)OCO4)c2O[C@@H]1CN(C)Cc1ccc(C(F)(F)F)cc1 | inactive |
| O=C1O[C@H](c2ccccc2)[C@H](c2ccccc2)N2[C@H]1[C@@H](C(=O)NC[C@@H](O)c1ccccc1)[C@]1(C(=O)Nc3ccc(C#CC4=CCCCC4)cc31)[C@H]2c1ccccc1OCCO | active |
| C[C@@H]1CCCCO[C@@H](CN(C)C(=O)Nc2ccccc2)[C@H](C)CN([C@@H](C)CO)C(=O)c2cc(NC(=O)NC3CCCCC3)ccc2O1 | inactive |
| O=C1c2ccccc2[C@@]2(Cc3ccccc3N(C3CC3)C2=O)[C@H](c2ccc(CO)cc2)N1Cc1ccccc1 | inactive |
| C[C@@H]1CCCCO[C@@H](CN(C)C(=O)Cc2ccccc2)[C@H](C)CN([C@H](C)CO)C(=O)c2cc(NS(=O)(=O)c3cccs3)ccc2O1 | inactive |
| C[C@@H]1CN([C@H](C)CO)C(=O)c2cc(NC(=O)Cc3ccccc3)ccc2O[C@H]1CN(C)Cc1ccc(Oc2ccccc2)cc1 | inactive |
| CCCCC[C@@H](C[C@@H](CC(=O)O)O[C@H]1O[C@@H](CO)[C@@H](O[C@H]2O[C@@H](CO)[C@@H](O)[C@@H](O)[C@@H]2O)[C@@H](O)[C@@H]1O)OC(=O)C[C@H](O)C[C@H](CCCCC)O[C@H]1O[C@@H](CO)[C@@H](O)[C@@H](O)[C@@H]1O | inactive |
| COc1cccc(CNC(=O)C[C@@H]2CC[C@H]3[C@@H](COC[C@H](O)CN3S(=O)(=O)c3ccc(C)cc3)O2)c1 | inactive |
| O=C(C[C@H]1CC[C@H]2[C@@H](COC[C@H](O)CN2S(=O)(=O)c2ccc(Cl)cc2)O1)N[C@H]1CCN(Cc2ccccc2)C1 | inactive |
| CCCNC(=O)N(C)C[C@H]1Oc2cc(C#Cc3cccc(F)c3)ccc2S(=O)(=O)N([C@@H](C)CO)C[C@H]1C | inactive |
| CN(C)C(=O)c1cccc(-c2ccc3n(c2=O)C[C@@H]2[C@@H](CO)[C@H](C(=O)NCC4CC4)N[C@H]32)c1 | inactive |
